# Measured values published in patent US20230250147A1 (Sanofi, published 2023).
# T1: Mouse GLP-1R (mouse, UniProt O35659 22-463)
# T1 sequence (looked up): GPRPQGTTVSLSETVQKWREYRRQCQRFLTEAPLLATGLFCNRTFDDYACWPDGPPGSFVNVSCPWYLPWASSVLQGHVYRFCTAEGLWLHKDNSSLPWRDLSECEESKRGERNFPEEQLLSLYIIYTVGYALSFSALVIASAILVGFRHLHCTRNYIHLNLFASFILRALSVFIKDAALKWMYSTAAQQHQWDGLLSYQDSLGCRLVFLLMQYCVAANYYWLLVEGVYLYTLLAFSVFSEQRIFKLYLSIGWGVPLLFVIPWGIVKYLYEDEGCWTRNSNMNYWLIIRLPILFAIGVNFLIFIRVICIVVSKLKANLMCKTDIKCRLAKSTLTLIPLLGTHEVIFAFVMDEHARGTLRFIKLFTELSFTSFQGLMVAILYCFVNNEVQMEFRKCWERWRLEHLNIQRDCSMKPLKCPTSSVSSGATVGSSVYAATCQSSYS
# B1: GLP-1RA/FGF21 Fc fusion protein SEQ ID NO: 80 (Fc fusion)
# chain: HGEGTFTSDKSKQLEKRLVRLFILWLIAGGHSSGKPPPKGGGGGGGSGGGGSGGGGSA[… human IgG4 Fc with changes …]GGGSGSAHPIPDSSPLLQFGGQVRQRYLYTDDACQTEAHLEIREDGTVGGAADQSPESLLQLKALKPGVIQILGVKTSRFLCQRPDGALYGSLHFDPEACSFRELLLEDGYNVYQSEAHGLPLHLPGCKSPHRDPAPRGPARFLPLPGLPPAPPEPPGILAPQPPDVGSSDPLSMVGSQGRSPSYAS
# B2: GLP-1RA/FGF21 Fc fusion protein SEQ ID NO: 81 (Fc fusion)
# chain: HGEGTFTSDKSKQLEKRLVRLFIYWLIAGGHSSGKPPPKGGGGGGGSGGGGSGGGGSA[… human IgG4 Fc with changes …]GGGSGSAHPIPDSSPLLQFGGQVRQRYLYTDDACQTEAHLEIREDGTVGGAADQSPESLLQLKALKPGVIQILGVKTSRFLCQRPDGALYGSLHFDPEACSFRELLLEDGYNVYQSEAHGLPLHLPGCKSPHRDPAPRGPARFLPLPGLPPAPPEPPGILAPQPPDVGSSDPLSMVGSQGRSPSYAS
# B3: GLP-1RA/FGF21 Fc fusion protein SEQ ID NO: 82 (Fc fusion)
# chain: HGEGTFTSDKSKQLEKRLVRLFIELLIAGGHSSGKPPPKGGGGGGGSGGGGSGGGGSA[… human IgG4 Fc with changes …]GGGSGSAHPIPDSSPLLQFGGQVRQRYLYTDDACQTEAHLEIREDGTVGGAADQSPESLLQLKALKPGVIQILGVKTSRFLCQRPDGALYGSLHFDPEACSFRELLLEDGYNVYQSEAHGLPLHLPGCKSPHRDPAPRGPARFLPLPGLPPAPPEPPGILAPQPPDVGSSDPLSMVGSQGRSPSYAS
# B4: GLP-1RA/FGF21 Fc fusion protein SEQ ID NO: 164 (Fc fusion)
# chain: HSEGTFTSDKSKQLAKRLVRLFIEWLIKGGHSSGKPPPKGGGGGGGSGGGGSGGGGSA[… human IgG4 Fc with changes …]GGGSGSAHPIPDSSPLLQFGGQVRQRYLYTDDACQTEAHLEIREDGTVGGAADQSPESLLQLKALKPGVIQILGVKTSRFLCQRPDGALYGSLHFDPEACSFRELLLEDGYNVYQSEAHGLPLHLPGCKSPHRDPAPRGPARFLPLPGLPPAPPEPPGILAPQPPDVGSSDPLSMVGSQGRSPSYAS
# B5: GLP-1RA/FGF21 Fc fusion protein SEQ ID NO: 187 (Fc fusion)
# chain: HGEGTFTSDLSKQLAERLVRLFIEWLIKGGHSSGKPPPKGGGGGGGSGGGGSGGGGSA[… human IgG4 Fc with changes …]GGGSGSAHPIPDSSPLLQFGGQVRQRYLYTDDACQTEAHLEIREDGTVGGAADQSPESLLQLKALKPGVIQILGVKTSRFLCQRPDGALYGSLHFDPEACSFRELLLEDGYNVYQSEAHGLPLHLPGCKSPHRDPAPRGPARFLPLPGLPPAPPEPPGILAPQPPDVGSSDPLSMVGSQGRSPSYAS
# B6: GLP-1RA/FGF21 Fc fusion protein SEQ ID NO: 188 (Fc fusion)
# chain: HGEGTFTSDLSIQLAKRLAQLFIEWLIKGGHSSGKPPPKGGGGGGGSGGGGSGGGGSA[… human IgG4 Fc with changes …]GGGSGSAHPIPDSSPLLQFGGQVRQRYLYTDDACQTEAHLEIREDGTVGGAADQSPESLLQLKALKPGVIQILGVKTSRFLCQRPDGALYGSLHFDPEACSFRELLLEDGYNVYQSEAHGLPLHLPGCKSPHRDPAPRGPARFLPLPGLPPAPPEPPGILAPQPPDVGSSDPLSMVGSQGRSPSYAS
# B7: GLP-1RA/FGF21 Fc fusion protein SEQ ID NO: 190 (Fc fusion)
# chain: HGEGTFTSDKSKQLEKELVRLFYEWLKAGGHSKQKPPPKGGGGGGGSGGGGSGGGGSA[… human IgG4 Fc with changes …]GGGSGSAHPIPDSSPLLQFGGQVRQRYLYTDDACQTEAHLEIREDGTVGGAADQSPESLLQLKALKPGVIQILGVKTSRFLCQRPDGALYGSLHFDPEACSFRELLLEDGYNVYQSEAHGLPLHLPGCKSPHRDPAPRGPARFLPLPGLPPAPPEPPGILAPQPPDVGSSDPLSMVGSQGRSPSYAS
# B8: GLP-1RA/FGF21 Fc fusion protein SEQ ID NO: 192 (Fc fusion)
# chain: HGEGTFTSDLSKQLEERLARLFYEWLIAGGHSSQKPPPKGGGGGGGSGGGGSGGGGSA[… human IgG4 Fc with changes …]GGGSGSAHPIPDSSPLLQFGGQVRQRYLYTDDACQTEAHLEIREDGTVGGAADQSPESLLQLKALKPGVIQILGVKTSRFLCQRPDGALYGSLHFDPEACSFRELLLEDGYNVYQSEAHGLPLHLPGCKSPHRDPAPRGPARFLPLPGLPPAPPEPPGILAPQPPDVGSSDPLSMVGSQGRSPSYAS
# B9: GLP-1RA/FGF21 Fc fusion protein SEQ ID NO: 193 (Fc fusion)
# chain: HGEGTFTSDLSKQLEKELVRLFYEWLINGGHSSQKPPPKGGGGGGGSGGGGSGGGGSA[… human IgG4 Fc with changes …]GGGSGSAHPIPDSSPLLQFGGQVRQRYLYTDDACQTEAHLEIREDGTVGGAADQSPESLLQLKALKPGVIQILGVKTSRFLCQRPDGALYGSLHFDPEACSFRELLLEDGYNVYQSEAHGLPLHLPGCKSPHRDPAPRGPARFLPLPGLPPAPPEPPGILAPQPPDVGSSDPLSMVGSQGRSPSYAS
# B10: GLP-1RA/FGF21 Fc fusion protein SEQ ID NO: 195 (Fc fusion)
# chain: HGEGTFTSDLSKQLEKELVRLFYEWLINGGHSKGKPPPKGGGGGGGSGGGGSGGGGSA[… human IgG4 Fc with changes …]GGGSGSAHPIPDSSPLLQFGGQVRQRYLYTDDACQTEAHLEIREDGTVGGAADQSPESLLQLKALKPGVIQILGVKTSRFLCQRPDGALYGSLHFDPEACSFRELLLEDGYNVYQSEAHGLPLHLPGCKSPHRDPAPRGPARFLPLPGLPPAPPEPPGILAPQPPDVGSSDPLSMVGSQGRSPSYAS
# B11: GLP-1RA/FGF21 Fc fusion protein SEQ ID NO: 196 (Fc fusion)
# chain: HGEGTFTSDLSKQLEKELVRLFYEWLINGGPSSGKPPPKGGGGGGGSGGGGSGGGGSA[… human IgG4 Fc with changes …]GGGSGSAHPIPDSSPLLQFGGQVRQRYLYTDDACQTEAHLEIREDGTVGGAADQSPESLLQLKALKPGVIQILGVKTSRFLCQRPDGALYGSLHFDPEACSFRELLLEDGYNVYQSEAHGLPLHLPGCKSPHRDPAPRGPARFLPLPGLPPAPPEPPGILAPQPPDVGSSDPLSMVGSQGRSPSYAS
# B12: GLP-1RA/FGF21 Fc fusion protein SEQ ID NO: 197 (Fc fusion)
# chain: HGEGTFTSDLSKQLEKELVRLFYEWLINGGHSSGKPPPKGGGGGGGSGGGGSGGGGSA[… human IgG4 Fc with changes …]GGGSGSAHPIPDSSPLLQFGGQVRQRYLYTDDACQTEAHLEIREDGTVGGAADQSPESLLQLKALKPGVIQILGVKTSRFLCQRPDGALYGSLHFDPEACSFRELLLEDGYNVYQSEAHGLPLHLPGCKSPHRDPAPRGPARFLPLPGLPPAPPEPPGILAPQPPDVGSSDPLSMVGSQGRSPSYAS
# B13: GLP-1RA/FGF21 Fc fusion protein SEQ ID NO: 198 (Fc fusion)
# chain: HGEGTFTSDLSKQLEKELVRLFYEWLIAGGHSSQRPPPKGGGGGGGSGGGGSGGGGSA[… human IgG4 Fc with changes …]GGGSGSAHPIPDSSPLLQFGGQVRQRYLYTDDACQTEAHLEIREDGTVGGAADQSPESLLQLKALKPGVIQILGVKTSRFLCQRPDGALYGSLHFDPEACSFRELLLEDGYNVYQSEAHGLPLHLPGCKSPHRDPAPRGPARFLPLPGLPPAPPEPPGILAPQPPDVGSSDPLSMVGSQGRSPSYAS
# B14: GLP-1RA/FGF21 Fc fusion protein SEQ ID NO: 199 (Fc fusion)
# chain: HGEGTFTSDLSKQLEKELVRLFYEWLKAGGHSSGKPPPKGGGGGGGSGGGGSGGGGSA[… human IgG4 Fc with changes …]GGGSGSAHPIPDSSPLLQFGGQVRQRYLYTDDACQTEAHLEIREDGTVGGAADQSPESLLQLKALKPGVIQILGVKTSRFLCQRPDGALYGSLHFDPEACSFRELLLEDGYNVYQSEAHGLPLHLPGCKSPHRDPAPRGPARFLPLPGLPPAPPEPPGILAPQPPDVGSSDPLSMVGSQGRSPSYAS
# B15: GLP-1RA/FGF21 Fc fusion protein SEQ ID NO: 200 (Fc fusion)
# chain: HGEGTFTSDLSKQLEKELVRLFYEWLIKGGHSSGRPPPKGGGGGGGSGGGGSGGGGSA[… human IgG4 Fc with changes …]GGGSGSAHPIPDSSPLLQFGGQVRQRYLYTDDACQTEAHLEIREDGTVGGAADQSPESLLQLKALKPGVIQILGVKTSRFLCQRPDGALYGSLHFDPEACSFRELLLEDGYNVYQSEAHGLPLHLPGCKSPHRDPAPRGPARFLPLPGLPPAPPEPPGILAPQPPDVGSSDPLSMVGSQGRSPSYAS
# B16: GLP-1RA/FGF21 Fc fusion protein SEQ ID NO: 201 (Fc fusion)
# chain: HGEGTFTSDLSKQLEKELVRLFYEWLIKGGHSSQKPPPKGGGGGGGSGGGGSGGGGSA[… human IgG4 Fc with changes …]GGGSGSAHPIPDSSPLLQFGGQVRQRYLYTDDACQTEAHLEIREDGTVGGAADQSPESLLQLKALKPGVIQILGVKTSRFLCQRPDGALYGSLHFDPEACSFRELLLEDGYNVYQSEAHGLPLHLPGCKSPHRDPAPRGPARFLPLPGLPPAPPEPPGILAPQPPDVGSSDPLSMVGSQGRSPSYAS
# B17: GLP-1RA/FGF21 Fc fusion protein SEQ ID NO: 202 (Fc fusion)
# chain: HGEGTFTSDLSKQLEKELVRLFYEWLIKGGHSSIKPPPKGGGGGGGSGGGGSGGGGSA[… human IgG4 Fc with changes …]GGGSGSAHPIPDSSPLLQFGGQVRQRYLYTDDACQTEAHLEIREDGTVGGAADQSPESLLQLKALKPGVIQILGVKTSRFLCQRPDGALYGSLHFDPEACSFRELLLEDGYNVYQSEAHGLPLHLPGCKSPHRDPAPRGPARFLPLPGLPPAPPEPPGILAPQPPDVGSSDPLSMVGSQGRSPSYAS
# Target: T1, Mouse GLP-1R
# Assay: cell-based or functional assay
row,Binder,HTRF cAMP EC50
1,B1,64.4 pM
2,B2,67.4 pM
3,B3,72.5 pM
4,B4,88 pM
5,B5,67.5 pM
6,B6,71 pM
7,B7,479 pM
8,B8,98 pM
9,B9,71.3 pM
10,B10,56.6 pM
11,B11,31.7 pM
12,B12,48 pM
13,B13,65.1 pM
14,B14,153 pM
15,B15,46.2 pM
16,B16,69.8 pM
17,B17,71.7 pM

# Target: Monkey GLP-1R (monkey)
# Assay: cell-based or functional assay
row,Binder,HTRF cAMP EC50
1,B1,42.5 pM
2,B2,49.4 pM
3,B3,109 pM
4,B4,141 pM
5,B5,63.2 pM
6,B6,63.7 pM
7,B7,239 pM
8,B8,149 pM
9,B9,151 pM
10,B10,71.8 pM
11,B11,127 pM
12,B12,102 pM
13,B13,86.9 pM
14,B14,231 pM
15,B15,111 pM
16,B16,98.6 pM
17,B17,128 pM

# Target: human glucagon-like peptide-1 (GLP-1) receptor (human, UniProt P43220 24-463)
# Assay: cell-based or functional assay
row,Binder,HTRF cAMP EC50
1,B1,48.6 pM
2,B2,49.9 pM
3,B3,90.1 pM
4,B4,103 pM
5,B5,67.4 pM
6,B6,59.6 pM
7,B7,152 pM
8,B8,102 pM
9,B9,108 pM
10,B10,74.5 pM
11,B11,75.3 pM
12,B12,68.3 pM
13,B13,86.5 pM
14,B14,163 pM
15,B15,73.1 pM
16,B16,101 pM
17,B17,100 pM
